The source of these data is PubChem BioAssay AID488969 (Vanderbilt High Throughput Screening Facility, 2010).

The full ranking holds about 110,000 compounds; the median of “z-score” is about -0.1, and the highest 2% start at about 2. This is one part of the list. The source made the active and inactive calls.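 Rule for the calls: active = z-score in the third read window above 3 or below -3; inactive = the rest.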

The assay addresses Metabotropic glutamate receptor 8 (Rattus norvegicus) (UniProt P70579). Nature of the assay: rat mGluR8 modulators via GIRK flux, primary screen, cell-based, thallium flux, HTS (AID 488969). The settings on record: HEK293 rat mGluR8, GIRK (G protein-gated inwardly rectifying potassium channel) thallium flux, FluoZin2; at 10 µM; stronger effect = higher value; submaximal glutamate (EC20) added with thallium.
Sequence of UniProt P70579 (P70579 whole entry, looked up): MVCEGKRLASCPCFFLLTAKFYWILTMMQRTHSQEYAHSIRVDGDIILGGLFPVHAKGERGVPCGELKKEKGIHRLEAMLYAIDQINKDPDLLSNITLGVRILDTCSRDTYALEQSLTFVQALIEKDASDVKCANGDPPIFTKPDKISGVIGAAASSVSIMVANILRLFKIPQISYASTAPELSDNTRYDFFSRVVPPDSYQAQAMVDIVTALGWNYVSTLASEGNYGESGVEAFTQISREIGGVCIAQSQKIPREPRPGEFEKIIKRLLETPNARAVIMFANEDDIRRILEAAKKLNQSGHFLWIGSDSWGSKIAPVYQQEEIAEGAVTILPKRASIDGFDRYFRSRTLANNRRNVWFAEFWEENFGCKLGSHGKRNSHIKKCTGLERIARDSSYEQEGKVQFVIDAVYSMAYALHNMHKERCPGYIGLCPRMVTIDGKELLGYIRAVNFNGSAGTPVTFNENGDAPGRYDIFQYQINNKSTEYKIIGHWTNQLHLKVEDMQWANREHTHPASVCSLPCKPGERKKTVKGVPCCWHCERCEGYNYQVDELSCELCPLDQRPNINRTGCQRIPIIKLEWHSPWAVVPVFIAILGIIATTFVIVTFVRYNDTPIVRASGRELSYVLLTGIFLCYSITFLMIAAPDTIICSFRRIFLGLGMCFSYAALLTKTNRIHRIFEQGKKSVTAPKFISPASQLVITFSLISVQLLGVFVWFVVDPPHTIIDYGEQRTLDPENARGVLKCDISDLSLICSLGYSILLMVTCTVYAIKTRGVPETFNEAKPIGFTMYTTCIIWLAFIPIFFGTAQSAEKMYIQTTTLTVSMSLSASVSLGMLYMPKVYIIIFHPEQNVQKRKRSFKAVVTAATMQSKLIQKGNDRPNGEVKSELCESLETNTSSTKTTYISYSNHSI
Regarding `Cc1occc1C(=O)NCc1cccc(CNC(=O)c2ccoc2C)c1`, the z-score is -0.164.

As to `Cc1nc2cc(Nc3nnc(-c4ccccc4)c4ccccc34)ccc2n1C`, the z-score is -0.174.

`Cc1csc2ncc(C(=O)NCCc3ccccc3)c(=O)n12`: the z-score was -0.247.

Compound `c1cc(-c2noc(CCC3CCCC3)n2)ccn1` returned a z-score of 0.256.

Take `O=C(CSc1nc(O)cc(=O)[nH]1)N1CCCc2ccccc21`: the z-score was -0.65.

For the compound `c1csc(-c2csc(-c3cccs3)n2)c1`, the z-score was -0.241.

`CCCCOc1ccc(C(=O)Nn2c(-c3cccs3)nc3ccccc3c2=O)cc1` had a z-score of 0.0501.

`O=C(NC(=S)Nc1ccc(NC(=O)c2cccs2)cc1)c1cc2ccccc2o1` showed a z-score of 0.0528.

On to `CC(C)COc1cccc(C(=O)Nc2ccc(S(=O)(=O)N3CCOCC3)cc2)c1`, for which the z-score was -0.473.

For the compound `COc1ccc(-n2c(C)c([N+](=O)[O-])c3ccc(O)c(CN4CCCCC4)c32)cc1`, the z-score is -0.457.

With `CCN(CC)C1=N/C(=C\c2ccco2)C(=O)N1c1ccccc1`, the z-score is -0.386.

`CCOC(=O)c1sc(=S)n(-c2ccccc2Cl)c1SC`: the z-score is -0.296.

`Cc1c(C(=O)N2CCCCC2)sc(NC(=O)C2CC2)c1C#N` had a z-score of 0.0411.

As for `CCOc1ccc(NC(=O)Cn2nnc(-c3ccccc3NC(=O)C3CC3)n2)cc1`, the z-score is -0.104.

With `CC(C)N(CCc1ccncc1)C(=O)Nc1ccc(Cl)c(Cl)c1`, the z-score was -0.239.

On to `COc1ccc(C(=O)Nc2nncs2)cc1S(=O)(=O)N1CC(c2ccccc2)CC1=O` (stereo unspecified), for which the z-score is -0.158.

For `CC(=O)CC(=O)Nc1ccc(Nc2ccccc2)cc1`, the z-score was -0.163.

Compound `Cc1ccc(C(=O)NC(=S)/C=C2\N(C)c3ccccc3C2(C)C)cc1` gave a z-score of 2.66.

Turning to `COc1ccc(CNC(=O)NC2CCCCC2)cc1`, the z-score was -0.0515.

In the case of `Cc1ccc(NC=C(S(=O)(=O)c2ccccc2)S(=O)(=O)c2ccccc2)cc1`, the z-score came to 0.144.

Compound `Cc1cc(N2CCCC2)c(C)cc1C=O` registered a z-score of 0.209.

With `COc1ccc(S(=O)(=O)Nc2cc(C(=O)NCCC(C)C)ccc2N2CCOCC2)cc1`, the z-score was -0.204.

For the compound `COc1ccccc1NC(=O)/C(C#N)=C/c1cc([N+](=O)[O-])ccc1N1CCCC1`, the z-score is -0.225.

Turning to `COc1ccc(OC)c2[nH]c(=O)c(CCNC(=O)C3CCCCC3)cc12`, the z-score is -0.1.

Regarding `CC12CCC(C(=O)NCCN3CCCCC3)(CC1=O)C2(C)C` (stereo unspecified), the z-score is -0.0355.

Compound `CC(C)Nc1nc(Oc2ccc(Cl)cc2)cc(C(F)(F)F)n1` showed a z-score of 0.0405.

On to `CCc1c(O)cc2n(c1=O)-c1ccc(Cl)cc1C2(C)C`, for which the z-score was -0.0574.

With `O=C1CC(c2ccc3c(c2)OCO3)CN1` (stereo unspecified), the z-score was -0.0955.

With `Cc1nc2ccc(C(=O)c3ccccc3)cc2[nH]1`, the z-score is -0.261.

In the case of `CN1CCCCc2c1[nH]c1ccccc1c2=O`, the z-score is -0.219.

In the case of `COc1ccccc1C(=O)N1CCN(S(=O)(=O)c2ccccc2)CC1`, the z-score is -0.543.

On to `Cc1cnc(C(=O)Nc2nnc(C3CC3)s2)cn1`, for which the z-score was -0.105.

The compound `O=C(CSc1nnc(Nc2ccccc2)s1)Nc1cccnc1Cl` had a z-score of 1.36.

Turning to `Cc1nn(C)c(C)c1S(=O)(=O)N(CC(=O)NCCCOC(C)C)c1ccc(C(C)C)cc1`, the z-score was -0.0899.

On to `CC(=O)c1c(N2CCCC2)[nH]c(-c2ccccc2)nc1=S`, for which the z-score is active: 14.8.

Turning to `COc1ccc(C(=O)n2nc(-c3ccc(OC)cc3)nc2N)cc1`, the z-score was -0.148.

On to `O=C(Nc1cc(N2CCOCC2)ncn1)NC1(C(F)(F)F)Oc2ccccc2O1`, for which the z-score was -0.355.

`COc1ccc(NC(=O)C(NC(=O)c2ccc(=O)[nH]c2)c2ccc(OC)cc2)cc1` (stereo unspecified): the z-score was -0.021.

For `CCOC(=O)C1=NN(c2ccccc2)C2(S1)SC(C(C)=O)=C(C)N2c1ccccc1` (stereo unspecified), the z-score was -0.0461.

On to `COc1ccc2nc(/N=C\N(C)C)sc2c1`, for which the z-score was found to be 0.401.

`CCC(=O)N1CCc2cc(S(=O)(=O)NCCC(=O)N3CC=C(c4ccccc4)CC3)ccc21` showed a z-score of 0.571.

Consider `O=C(c1cc2cc(Cl)ccc2oc1=O)N1CCOCC1`, for which the z-score is -0.215.

`CCCSc1nc(C)cc(=O)[nH]1` showed a z-score of 0.53.

In turn, `Fc1ccc(CSc2nnc(CN3CCOCC3)n2-c2ccccc2)c(Cl)c1` yielded a z-score of 0.402.

`O=C(NCCC1=CCCCC1)NC1CCCCC1` showed a z-score of 0.424.

For the compound `COc1cccc(NC(=O)Cc2nnc(SCC(=O)NC(C)c3ccccc3)n2C)c1` (stereo unspecified), the z-score is -0.192.

For `COc1ccc(C(=O)NCCCN2CCCC2=O)cc1`, the z-score was -0.241.

Consider `CC1CCN(C(=O)Cn2c(=O)n(CCc3ccccc3)c(=O)c3ccccc32)CC1`, for which the z-score was -0.669.

For `CCC1(C)C(Nc2c(C)cccc2C)=NC(=S)N1c1ccc(NC(C)=O)cc1` (stereo unspecified), the z-score was -0.38.

In turn, `CCN(CC)S(=O)(=O)c1ccc2c(c1)c(C(=O)O)cn2C` showed a z-score of 0.106.

Take `CCCn1c(C)cc(/C=C(\C#N)C(=O)OCC(=O)Nc2cccc(OC)c2)c1C`: the z-score is active: 3.42.

As for `O=c1c2ccccc2nnn1CSc1nnc(-c2cccc(S(=O)(=O)N3CCCCC3)c2)o1`, the z-score was -1.01.

Regarding `CCOC(=O)c1ccc(CNC(=O)CSc2nnnn2-c2ccc(Cl)cc2)o1`, the z-score is -1.07.

For `COc1cc(/C=C2/SC(=NCc3ccccc3)N(Cc3ccccc3)C2=O)ccc1O`, the z-score was -0.176.

Regarding `CCOc1ccccc1NC(=S)N1CCC(c2nc3ccccc3o2)CC1`, the z-score is -0.329.

In turn, `CCc1ccccc1NC(=O)NC1CC2CCC(C1)N2Cc1cccs1` (stereo unspecified) registered a z-score of 0.0467.

As for `CC(C)CNC1=C(C(=S)Nc2ccccc2)C(=O)CC(C)(C)C1`, the z-score was -0.182.

For `CCCCCCSC1=C(C#N)C(c2ccccc2)CC(=O)N1` (stereo unspecified), the z-score was -0.195.

On to `CC(NC(=O)/C(C#N)=C1\N=C(NC(=O)c2cccs2)c2ccccc21)c1ccccc1` (stereo unspecified), for which the z-score was -0.208.

For the compound `COC(=O)C(C)Sc1nc(-c2ccc(OC)cc2)nc2c1c(=O)n(C)c(=O)n2C` (stereo unspecified), the z-score is -0.526.

In the case of `Cn1c(=O)[nH]c(=O)c2c1nc(Br)n2CCCc1ccccc1`, the z-score was -0.728.

Consider `CCOC(=O)c1[nH]c2ccccc2c1NC(=O)CC`, for which the z-score is -0.0151.

For the compound `COc1ccc(CCN(C(=O)c2cccc(F)c2)C2CC(=O)N(c3ccccc3)C2=O)cc1` (stereo unspecified), the z-score is -0.316.

Take `Cc1nn(CC(=O)Nc2ccncc2)c(C)c1[N+](=O)[O-]`: the z-score is -0.163.

Take `CCOc1ccc(C(=O)Nc2nnc(C(C)C)s2)cc1OCC`: the z-score was -0.409.

For the compound `C/C(CC(O)(/C=N/O)c1ccccc1)=N\O` (stereo unspecified), the z-score was 0.616.

As to `O=C(NCCCN1CCC(Cc2ccccc2)CC1)C1CC(=O)N(C2CCCCCC2)C1` (stereo unspecified), the z-score came out at 1.25.

`COC(=O)C1=C(C)N(CC2CCCO2)C(=O)/C1=C\c1ccc(O)cc1` (stereo unspecified): the z-score is -0.287.

`Cc1ccc(-n2nc3c4c(cccc4c2=O)-c2ccccc2-3)cc1`: the z-score was -0.376.

Turning to `Cc1cc(S(=O)(=O)NC(C)C)ccc1OCC(=O)N1CCOCC1`, the z-score was determined as 0.0382.

For `Cc1cccc(NC(=O)COC(=O)CNC(=O)C2CCCCC2)c1`, the z-score was -0.152.
